Patent publication US11000038B2, “Pyridone compounds and agricultural and horticultural fungicides containing the same as active ingredients” (priority 2017, dated 2021)

Experiments:
[1] = test system: cucumber anthracnose fungi (Colletotrichum orbiculare); assay: Test Example H: cucumber anthracnose, spray treatment of cucumber plants; details: 250 ppm spray, 2.5 ml/pot, cucumber Sagami Hanjiro; 6 to 10 days from inoculation
[2] = test system: rice blast fungi (Magnaporthe grisea); assay type: in vivo; details: spray treatment of rice plants; control value=100{1-(n/3)}
[3] = test system: tomato late blight fungi (Phytophthora infestans); assay type: in vivo; details: spray treatment of tomato plants; control value=100{1-(n/3)}

For O=c1c(Cl)cn(-c2ccccc2Cl)c(-c2c(F)cc(F)cc2F)c1Br [Compound 3], the “Test H control value class (cucumber anthracnose)” value (“Test H control value class” below) [1] was “H (H shows the control value of more than 50%)”, the “Test A control value class (rice blast)” value [2] was “H (H shows the control value of more than 50%)” and the “Test F control value class (tomato late blight)” value (“Test F control value class” below) [3] was “L (L shows the control value of 50% or less)”.

With CCCn1cc(Cl)c(=O)c(Cl)c1-c1c(F)cc(F)cc1F [Compound 6] the “Test H control value class” value [1] was “L (L shows the control value of 50% or less)”, the “Test A control value class (rice blast)” value [2] was “H (H shows the control value of more than 50%)” and the “Test F control value class” value [3] was “L (L shows the control value of 50% or less)”.

With CCCn1cc(Cl)c(=O)c(Br)c1-c1c(F)cc(F)cc1F [Compound 7] the “Test H control value class” value [1] was “H (H shows the control value of more than 50%)”, the “Test A control value class (rice blast)” value [2] was “H (H shows the control value of more than 50%)” and the “Test F control value class” value [3] was “L (L shows the control value of 50% or less)”.

O=c1c(Br)cn(-c2ccccc2)c(-c2c(F)cc(F)cc2F)c1Br [Compound 8] was tested, and the “Test H control value class” value [1] was “H (H shows the control value of more than 50%)”, the “Test A control value class (rice blast)” value [2] was “H (H shows the control value of more than 50%)” and the “Test F control value class” value [3] was “L (L shows the control value of 50% or less)”.

For O=c1c(Br)cn(-c2ccccc2)c(-c2c(F)cc(F)cc2F)c1Cl [Compound 9], the “Test H control value class” value [1] was “H (H shows the control value of more than 50%)”, the “Test A control value class (rice blast)” value [2] was “H (H shows the control value of more than 50%)” and the “Test F control value class” value [3] was “L (L shows the control value of 50% or less)”.

For CC(C)n1cc(Cl)c(=O)c(Cl)c1-c1c(F)cc(F)cc1F [Compound 10], the “Test H control value class” value [1] was “H (H shows the control value of more than 50%)”, the “Test A control value class (rice blast)” value [2] was “H (H shows the control value of more than 50%)” and the “Test F control value class” value [3] was “L (L shows the control value of 50% or less)”.

For CC(C)n1cc(Cl)c(=O)c(Br)c1-c1c(F)cc(F)cc1F [Compound 11], the “Test H control value class” value [1] was “H (H shows the control value of more than 50%)”, the “Test A control value class (rice blast)” value [2] was “H (H shows the control value of more than 50%)” and the “Test F control value class” value [3] was “L (L shows the control value of 50% or less)”.

With CC(C)n1cc(Br)c(=O)c(Br)c1-c1c(F)cc(F)cc1F [Compound 12] the “Test H control value class” value [1] was “H (H shows the control value of more than 50%)”, the “Test A control value class (rice blast)” value [2] was “H (H shows the control value of more than 50%)” and the “Test F control value class” value [3] was “L (L shows the control value of 50% or less)”.

With CC(C)n1cc(Br)c(=O)c(Cl)c1-c1c(F)cc(F)cc1F [Compound 13] the “Test H control value class” value [1] was “H (H shows the control value of more than 50%)”, the “Test A control value class (rice blast)” value [2] was “L (L shows the control value of 50% or less)” and the “Test F control value class” value [3] was “L (L shows the control value of 50% or less)”.

O=c1c(Cl)cn(-c2ccccc2)c(-c2c(F)cc(F)cc2F)c1Cl [Compound 14] was tested, and the “Test H control value class” value [1] was “H (H shows the control value of more than 50%)”, the “Test A control value class (rice blast)” value [2] was “H (H shows the control value of more than 50%)” and the “Test F control value class” value [3] was “L (L shows the control value of 50% or less)”.

O=c1c(Cl)cn(-c2ccccc2)c(-c2c(F)cc(F)cc2F)c1Br [Compound 15] was tested, and the “Test H control value class” value [1] was “H (H shows the control value of more than 50%)”, the “Test A control value class (rice blast)” value [2] was “H (H shows the control value of more than 50%)” and the “Test F control value class” value [3] was “L (L shows the control value of 50% or less)”.

COc1cc(F)c(-c2c(Cl)c(=O)c(Cl)cn2-c2ccccc2)c(F)c1 [Compound 16] was tested, and the “Test H control value class” value [1] was “H (H shows the control value of more than 50%)”, the “Test A control value class (rice blast)” value [2] was “H (H shows the control value of more than 50%)” and the “Test F control value class” value [3] was “L (L shows the control value of 50% or less)”.

COc1cc(F)c(-c2c(Br)c(=O)c(Cl)cn2-c2ccccc2)c(F)c1 [Compound 17] was tested, and the “Test H control value class” value [1] was “H (H shows the control value of more than 50%)”, the “Test A control value class (rice blast)” value [2] was “H (H shows the control value of more than 50%)” and the “Test F control value class” value [3] was “L (L shows the control value of 50% or less)”.

COc1cc(F)c(-c2c(Br)c(=O)c(Br)cn2C(C)C)c(F)c1 [Compound 18] was tested, and the “Test H control value class” value [1] was “H (H shows the control value of more than 50%)”, the “Test A control value class (rice blast)” value [2] was “H (H shows the control value of more than 50%)” and the “Test F control value class” value [3] was “L (L shows the control value of 50% or less)”.

For COc1cc(F)c(-c2c(Cl)c(=O)c(Br)cn2C(C)C)c(F)c1 [Compound 19], the “Test H control value class” value [1] was “H (H shows the control value of more than 50%)”, the “Test A control value class (rice blast)” value [2] was “H (H shows the control value of more than 50%)” and the “Test F control value class” value [3] was “L (L shows the control value of 50% or less)”.

For O=c1c(Br)cn(-c2ccccc2F)c(-c2c(F)cc(F)cc2F)c1Cl [Compound 20], the “Test H control value class” value [1] was “H (H shows the control value of more than 50%)”, the “Test A control value class (rice blast)” value [2] was “H (H shows the control value of more than 50%)” and the “Test F control value class” value [3] was “L (L shows the control value of 50% or less)”.

In the case of COc1cc(F)c(-c2c(Cl)c(=O)c(Br)cn2-c2ccccc2F)c(F)c1 [Compound 21], the “Test H control value class” value [1] is reported as “H (H shows the control value of more than 50%)”, the “Test A control value class (rice blast)” value [2] is reported as “H (H shows the control value of more than 50%)” and the “Test F control value class” value [3] is reported as “L (L shows the control value of 50% or less)”.

In the case of O=c1c(Br)cn(-c2ccccc2F)c(-c2c(F)cc(F)cc2F)c1Br [Compound 22], the “Test H control value class” value [1] is reported as “H (H shows the control value of more than 50%)”, the “Test A control value class (rice blast)” value [2] is reported as “H (H shows the control value of more than 50%)” and the “Test F control value class” value [3] is reported as “L (L shows the control value of 50% or less)”.

With COc1cc(F)c(-c2c(Br)c(=O)c(Br)cn2-c2ccccc2F)c(F)c1 [Compound 23] the “Test H control value class” value [1] was “H (H shows the control value of more than 50%)”, the “Test A control value class (rice blast)” value [2] was “H (H shows the control value of more than 50%)” and the “Test F control value class” value [3] was “L (L shows the control value of 50% or less)”.

O=c1c(Cl)cn(-c2ccccc2F)c(-c2c(F)cc(F)cc2F)c1Cl [Compound 24] was tested, and the “Test H control value class” value [1] was “H (H shows the control value of more than 50%)”, the “Test A control value class (rice blast)” value [2] was “H (H shows the control value of more than 50%)” and the “Test F control value class” value [3] was “L (L shows the control value of 50% or less)”.

In the case of O=c1c(Cl)cn(C2CCCCC2)c(-c2c(F)cc(F)cc2F)c1Br [Compound 25], the “Test H control value class” value [1] is reported as “H (H shows the control value of more than 50%)”, the “Test A control value class (rice blast)” value [2] is reported as “H (H shows the control value of more than 50%)” and the “Test F control value class” value [3] is reported as “L (L shows the control value of 50% or less)”.

With O=c1c(Cl)cn(C2CCCCC2)c(-c2c(F)cc(F)cc2F)c1Cl [Compound 26] the “Test H control value class” value [1] was “L (L shows the control value of 50% or less)”, the “Test A control value class (rice blast)” value [2] was “H (H shows the control value of more than 50%)” and the “Test F control value class” value [3] was “L (L shows the control value of 50% or less)”.

For COc1cc(F)c(-c2c(Br)c(=O)c(Cl)cn2C2CCCCC2)c(F)c1 [Compound 27], the “Test H control value class” value [1] was “H (H shows the control value of more than 50%)”, the “Test A control value class (rice blast)” value [2] was “H (H shows the control value of more than 50%)” and the “Test F control value class” value [3] was “L (L shows the control value of 50% or less)”.

For COc1cc(F)c(-c2c(Cl)c(=O)c(Cl)cn2CCCC(F)(F)F)c(F)c1 [Compound 85], the “Test H control value class” value [1] was “L (L shows the control value of 50% or less)” and the “Test A control value class (rice blast)” value [2] was “L (L shows the control value of 50% or less)”.

For O=c1c(Br)cn(Cc2ccccc2Cl)c(-c2c(F)cc(F)cc2F)c1Cl [Compound 86], the “Test H control value class” value [1] was “L (L shows the control value of 50% or less)” and the “Test A control value class (rice blast)” value [2] was “L (L shows the control value of 50% or less)”.

With O=c1c(Br)cn(Cc2ccccc2Cl)c(-c2c(F)cc(F)cc2F)c1Br [Compound 87] the “Test H control value class” value [1] was “H (H shows the control value of more than 50%)” and the “Test A control value class (rice blast)” value [2] was “H (H shows the control value of more than 50%)”.

For COc1cc(F)c(-c2c(Br)c(=O)c(Cl)cn2Cc2ccccc2Cl)c(F)c1 [Compound 88], the “Test H control value class” value [1] was “H (H shows the control value of more than 50%)” and the “Test A control value class (rice blast)” value [2] was “H (H shows the control value of more than 50%)”.

With Cc1c(-c2c(F)cc(F)cc2F)n(C(C)C(C)C)cc(C(F)(F)F)c1=O (stereo not shown) [Compound 157] the “Test H control value class” value [1] was “L (L shows the control value of 50% or less)” and the “Test A control value class (rice blast)” value [2] was “H (H shows the control value of more than 50%)”.
